# The supplement of paper PMC7826260
# This is one part of the list. The data describe in vitro nicking of single-stranded DNA by Rep domains (3 µM enzyme, 1 h, 37 °C); shown is the middle of each 90-letter strand. The score is log2 (uncut reads / reads without enzyme); the lower, the more was cut; hits are not called. Reads are scaled to the total, so uncut sequences can rise above 0 when many others are cut.
# What was measured:
# Test in all cases: uncleaved DNA left, log2 of reads against the no-enzyme library (log2 ratio); higher = less cleavage (more negative = more Rep cleavage of the k-mer); sequences stand for … in CTCGTCCG…ACCGGAGA
# [1] = test system: T1, Rep nickase domain of Muscovy duck circovirus
# T1 sequence (Rep 1-111, printed without the tag): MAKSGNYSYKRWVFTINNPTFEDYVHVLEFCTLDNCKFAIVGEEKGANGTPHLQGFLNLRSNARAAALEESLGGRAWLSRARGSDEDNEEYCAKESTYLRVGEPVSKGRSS
# Method: (§1)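 A pool of 90-nt single-stranded DNAs with seven random bases just before the constant AC of the nick site (name = the seven bases) was cut by 3 µM recombinant His6-SUMO-tagged Rep nickase domain (300 nM DNA, 50 mM HEPES pH 8.0, 50 mM NaCl, 1 mM MnCl2, 1 h, 37 °C, three replicates). Uncut DNA was amplified and sequenced.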
# [2] = test system: T2, Rep nickase domain of banana bunchy top virus
# T2 sequence (Rep 1-94, printed without the tag): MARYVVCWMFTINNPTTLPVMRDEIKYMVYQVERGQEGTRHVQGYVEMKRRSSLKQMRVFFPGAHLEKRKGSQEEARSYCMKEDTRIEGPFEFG
# Method: as §1
# [3] = test system: T3, Rep nickase domain of cabbage leaf curl virus
# T3 sequence (Rep 1-116, printed without the tag): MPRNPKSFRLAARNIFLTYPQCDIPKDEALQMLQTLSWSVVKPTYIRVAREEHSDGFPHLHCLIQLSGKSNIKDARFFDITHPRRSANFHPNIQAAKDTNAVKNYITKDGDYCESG
# Method: as §1
# [4] = test system: T4, Rep nickase domain of chickpea chlorotic dwarf virus
# T4 sequence (Rep 1-124, printed without the tag): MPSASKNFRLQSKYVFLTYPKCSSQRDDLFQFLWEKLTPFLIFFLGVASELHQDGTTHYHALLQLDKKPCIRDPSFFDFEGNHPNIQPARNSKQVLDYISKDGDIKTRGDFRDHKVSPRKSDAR
# Method: as §1
# [5] = test system: T5, Rep nickase domain of faba bean necrotic yellows virus
# T5 sequence (Rep 1-98, printed without the tag): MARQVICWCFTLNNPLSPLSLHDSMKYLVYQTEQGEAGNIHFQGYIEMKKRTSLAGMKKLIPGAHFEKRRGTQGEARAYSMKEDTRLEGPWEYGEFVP
# Method: as §1
# [6] = test system: T6, Rep nickase domain of maize striate mosaic virus
# T6 sequence (Rep 1-117, printed without the tag): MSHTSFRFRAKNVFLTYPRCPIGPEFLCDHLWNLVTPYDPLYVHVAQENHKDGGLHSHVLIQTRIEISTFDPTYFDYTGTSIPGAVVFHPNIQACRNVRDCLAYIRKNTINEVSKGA
# Method: as §1
# [7] = test system: T7, Rep nickase domain of porcine circovirus 2
# T7 sequence (Rep 2-116, printed without the tag): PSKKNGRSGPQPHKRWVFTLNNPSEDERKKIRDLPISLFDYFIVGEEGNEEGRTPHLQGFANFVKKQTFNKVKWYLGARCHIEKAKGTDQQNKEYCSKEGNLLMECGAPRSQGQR
# Method: as §1
# [8] = test system: T8, Rep nickase domain of tomato yellow leaf curl virus
# T8 sequence (Rep 1-136, printed without the tag): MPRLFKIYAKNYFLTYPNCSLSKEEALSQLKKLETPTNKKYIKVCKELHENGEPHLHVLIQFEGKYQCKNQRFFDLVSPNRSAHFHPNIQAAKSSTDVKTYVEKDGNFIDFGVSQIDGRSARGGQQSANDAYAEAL
# Method: as §1
# [9] = test system: T9, Rep nickase domain of wheat dwarf virus
# T9 sequence (Rep 1-137, printed without the tag): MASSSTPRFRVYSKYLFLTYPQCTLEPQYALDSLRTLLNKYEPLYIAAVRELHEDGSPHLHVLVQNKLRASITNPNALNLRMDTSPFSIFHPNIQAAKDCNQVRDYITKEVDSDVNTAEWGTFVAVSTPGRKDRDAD
# Method: as §1
Sequence,uncleaved DNA left (log2) [1],uncleaved DNA left (log2) [2],uncleaved DNA left (log2) [3],uncleaved DNA left (log2) [4],uncleaved DNA left (log2) [5],uncleaved DNA left (log2) [6],uncleaved DNA left (log2) [7],uncleaved DNA left (log2) [8],uncleaved DNA left (log2) [9]
ACTCGGC,0.0193,-0.0135,-0.5,-0.569,-0.0408,-1.2,0.185,0.0157,-0.0787
CTGTTCG,-0.0255,-0.19,-0.865,0.244,0.0144,-0.988,0.0321,-0.0639,-0.135
GTCCCCA,0.0455,0.00662,0.214,0.804,-0.0329,1.67,-0.0425,0.0809,0.0797
CAAGCAT,0.0627,-0.0104,-0.134,-0.617,-0.0469,-0.194,0.0624,-0.0683,0.0854
TCCAATG,0.021,-0.0217,-0.254,-0.428,0.0372,-0.906,0.113,0.136,-0.0484
GCTGCAC,0.00394,0.103,-0.0612,0.258,0.0628,-0.149,0.079,0.0614,0.0375
TTGACTT,0.126,-0.0821,0.295,-0.0933,0.0146,1.19,-0.305,0.0449,0.095
CGGTATT,-2.65,-1.88,-0.283,-1.39,-2.07,0.66,-3.04,-0.0968,-0.37
TTCTTGA,0.0427,0.00776,0.244,0.392,-0.12,0.679,0.0245,-0.0261,-0.0374
TTCAAAG,0.106,0.0349,-0.625,-0.581,0.17,-1.18,0.304,0.146,0.146
CCAACAT,0.103,0.1,0.263,-0.305,-0.0432,0.458,0.141,0.092,0.186
CTGAACT,0.0113,-0.0318,0.103,-1.12,0.0332,0.541,0.0512,-0.00779,0.116
GATAATA,0.00997,0.0192,0.157,-0.941,-0.0406,0.892,-0.0914,0.0188,0.0476
TGCTGTC,-0.0757,-0.114,-0.0119,0.241,-0.137,0.341,0.11,-0.0854,-0.144
TTAACAA,0.0889,0.207,-0.156,-0.61,0.0968,-0.00432,0.129,0.173,0.189
TTAACCA,-0.152,-0.0446,-0.242,-1.72,-0.0618,-0.079,-0.613,-0.0351,0.018
CTCCGAT,-0.00465,-0.125,0.166,0.426,-0.0141,0.625,0.143,-0.105,-0.0283
CTAACTC,0.083,0.0813,-0.0796,-1.4,0.0693,-0.472,0.0675,0.0691,-0.0248
ATACGAC,-0.0387,-0.0484,-0.14,-0.328,-0.0355,-0.745,0.0124,-0.0307,0.00875
TAGAGAA,0.0699,-0.137,0.186,-0.121,-0.0258,-0.0804,-0.968,-0.132,0.0418
GGTCCGG,-0.0012,0.147,0.681,1.64,0.0193,2.16,0.092,0.0501,0.0486
GAGCGAG,0.0257,0.0711,-0.0816,0.53,-0.00993,0.725,0.131,0.116,0.12
GGACTGA,-0.0519,0.0522,0.505,1.54,-0.117,2.09,0.187,-0.0481,0.134
ACGGTAG,0.0967,0.00921,-0.807,-0.547,-0.0846,-1.11,0.197,0.129,-0.141
GAAGGCT,-0.0132,-0.00811,0.155,0.178,-0.0925,0.805,-0.0101,-0.0906,0.0193
ACTCACT,-0.0162,-0.00744,-0.29,-2.13,-0.0491,-0.849,-2.6,-0.164,-0.0786
TCCACGC,-0.161,-0.148,-0.0226,-0.346,-0.0813,-0.523,-0.0373,-0.131,-0.163
GTAGTTA,0.145,0.0743,0.252,0.563,-0.0926,1.54,0.0235,-0.0207,-0.142
GGGATAT,-0.1,0.0675,0.788,2.04,-0.129,2.2,0.142,-0.17,0.0928
GAGCACC,-0.0711,0.015,0.218,0.513,-0.0843,0.753,-0.0988,-0.00267,0.0341
